Experimental data as given in patent publication US20250002455A1, “NEW N-PHENYLPYRROLAMIDE INHIBITORS OF DNA GYRASE AND TOPOISOMERASE IV WITH ANTIBACTERIAL ACTIVITY” (priority 2020, published 2025).
Values after ≈ are worked out from the molar mass of the structure shown.

Columns and labels:
[1] = test system: THP-1 macrophages infected with M. tuberculosis H37Rv
[2] = test system: M. tuberculosis H37Rv; assay: microbe, parasite or virus in culture; details: Mycobacterium tuberculosis; for viability at 1.25 µM / viability at 2.5 µM / viability at 5 µM / viability at 10 µM / viability at 20 µM: 168 h, read-out: Viability of Mycobacterium tuberculosis H37Rv (%)

| SMILES | % GFP-Mtb [1] [%] | % THP-1 macrophages [1] [%] | viability at 1.25 µM [2] [%] | viability at 2.5 µM [2] [%] | viability at 5 µM [2] [%] | viability at 10 µM [2] [%] | MIC90 [2] [µM] | viability at 20 µM [2] [%] |
| --- | --- | --- | --- | --- | --- | --- | --- | --- |
| Cc1[nH]c(C(=O)Nc2ccc(-c3nn[nH]n3)cc2N2CCCC(CN)C2)c(Cl)c1Cl.Cl (stereo not shown) [Example 9, (1-(2-(3,4-Dichloro-5-methyl-1H-pyrrole-2-carboxamido)-5-(2H-tetrazol-5-yl)phenyl)piperidin-3-yl)methanaminium chloride] | 7.8 | 46.4 | 5.9 | 3.7 | 1.5 | 0.2 |  |  |
| Cc1[nH]c(C(=O)Nc2ccc(-c3n[nH]c(=O)o3)cc2N2CCC[C@H](N)C2)c(Cl)c1Cl.Cl [Example 18, (S)-1-(2-(3,4-Dichloro-5-methyl-1H-pyrrole-2-carboxamido)-5-(5-oxo-4,5-dihydro-1,3,4-oxadiazol-2-yl)phenyl)piperidin-3-aminium chloride] | 4.2 | 35.0 | 9.6 | 8.5 | 5.8 | 2.5 | 2.5 |  |
| Cc1[nH]c(C(=O)Nc2ccc(-c3n[nH]c(=O)o3)cc2NC2CCNCC2)c(Cl)c1Cl.Cl [Example 19, 4-((2-(3,4-Dichloro-5-methyl-1H-pyrrole-2-carboxamido)-5-(5-oxo-4,5-dihydro-1,3,4-oxadiazol-2-yl)phenyl)amino)piperidin-1-ium chloride] | 14.0 | 19.3 | 90.2 | 56.8 | 22.8 | 2.1 |  | 0.8 |
| Cc1[nH]c(C(=O)Nc2ccc(-c3n[nH]c(=O)o3)cc2N2CC[C@H](N)C2)c(Cl)c1Cl.Cl [Example 20, (S)-1-(2-(3,4-Dichloro-5-methyl-1H-pyrrole-2-carboxamido)-5-(5-oxo-4,5-dihydro-1,3,4-oxadiazol-2-yl)phenyl)pyrrolidin-3-aminium chloride] | 5.6 | 17.0 | 6.3 | 6 | 4 | 1 |  |  |
| Cc1[nH]c(C(=O)Nc2ccc(-n3nn[nH]c3=O)cc2N2CCC(N)CC2)c(Cl)c1Cl.Cl [Example 23, 1-(2-(3,4-Dichloro-5-methyl-1H-pyrrole-2-carboxamido)-5-(5-oxo-4,5-dihydro-1H-tetrazol-1-yl)phenyl)piperidin-4-aminium chloride] | 33.5 | 19.6 | 76.3 | 69.5 | 36.2 | 12.4 |  | 7.1 |
| Cc1[nH]c(C(=O)Nc2ccc(-n3nn[nH]c3=O)cc2N2CCN(c3ccccc3)CC2)c(Cl)c1Cl [Example 24, 3,4-Dichloro-5-methyl-N-(4-(5-oxo-4,5-dihydro-1H-tetrazol-1-yl)-2-(4-phenylpiperazin-1-yl)phenyl)-1H-pyrrole-2-carboxamide] | 71.9 | 21.0 | 74.4 | 75 | 65.2 | 71.5 |  | 71.8 |
| Cc1[nH]c(C(=O)Nc2ccc(-c3n[nH]c(=O)o3)cc2OC2CCNCC2)c(Cl)c1Cl.Cl [Example 27, 4-(2-(3,4-Dichloro-5-methyl-1H-pyrrole-2-carboxamido)-5-(5-oxo-4,5-dihydro-1,3,4-oxadiazol-2-yl)phenoxy)piperidin-1-ium chloride] | 9.0 | 14.4 | 8.1 | 4.1 | 3.9 | 4 |  | 3.5 |
| Cc1[nH]c(C(=O)Nc2ccc(C(=O)NCC(=O)O)cc2N2CC[C@@H](N)C2)c(Cl)c1Cl [Example 34, (R)-1-(5-((Carboxymethyl)carbamoyl)-2-(3,4-dichloro-5-methyl-1H-pyrrole-2-carboxamido)phenyl)pyrrolidin-3-aminium chloride] | 46.5 | 15.3 | 71.6 | 74.6 | 66 | 24.8 |  | 5.5 |
| Cc1[nH]c(C(=O)Nc2ccc(C(=O)NCc3n[nH]c(=O)o3)cc2N2CCNCC2)c(Cl)c1Cl.Cl [Example 40, 4-(2-(3,4-Dichloro-5-methyl-1H-pyrrole-2-carboxamido)-5-(((5-oxo-4,5-dihydro-1,3,4-oxadiazol-2-yl)methyl)carbamoyl)phenyl)piperazin-1-ium chloride] | 38.9 | 17.5 | 82.3 | 81.3 | 76.6 | 38.9 |  | 1 |
| NNC(=O)c1ccncc1 [isoniazid, reference compound] | 13.9 | 73.7 |  |  |  |  | 0.156 (≈ 0.0214 µg/mL) |  |
| CO[C@H]1/C=C/O[C@@]2(C)Oc3c(C)c(O)c4c(O)c(c(/C=N/N5CCN(C)CC5)c(O)c4c3C2=O)NC(=O)/C(C)=C\C=C\[C@H](C)[C@H](O)[C@@H](C)[C@@H](O)[C@@H](C)[C@H](OC(C)=O)[C@@H]1C [rifampicin, reference compound] | 8.3 | 100.0 |  |  |  |  | 0.0625 (≈ 0.0514 µg/mL) |  |
